# The list shows a part of the results. Sequences were assembled here from the parent chain. Values near 0.05 are background.
# B1: TEV protease; numbered along this chain (parent)
# chain: MGESLFKGPRDYNPISSSICHLTNESDGHTTSLYGIGFGPFIITNKHLFRRNNGTLVVQSLHGVFKVKDTTTLQQHLVDGRDMIIIRMPKDFPPFPQKLKFREPQREERICLVTTNFQTKSMSSMVSDTSCTFPSGDGIFWKHWIQTKDGQCGSPLVSTRDGFIVGIHSASNFTNTNNYFTSVPKNFMELLTNQEAQQWVSGWRLNADSVLWGGHKVFMVKPEEPFQPVKEATQL
# Variants of: B1
# Assay: raw area under fraction-flipped curve 0-4 h after induction (AUC4h, not background-subtracted), DNA-recorder readout of cleavage of the substrate (dimensionless); higher = more cleavage of the substrate by the protease variant
# Details: temperature: 34 °C; time window: 0-4 h after rhamnose induction
# Procedure: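 In vivo DNA recorder in E. coli TOP10(DE3) ΔrhaA at 34 °C. Each TEVp single-site mutant (parent TEVp 0) is paired with a single-site variant of the 7-mer TEVs (canonical ENLYFQ|S). The substrate sits between flexible linkers in a Bxb1-sfGFP-TEVs-SsrA fusion, so cleavage stabilises Bxb1 and speeds flipping of a recombination array, read by NGS. The value is the raw area under the fraction-flipped curve over 0-4 h after rhamnose induction (AUC4h), with ≥20 reads per time point. It is not background-subtracted; inactive controls average about 0.047.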
# 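Further: Bxb1 expression induced with 0.2% (w/v) L-rhamnose at OD600 near 0.5, cultures sampled hourly, flipped fraction per protease–substrate barcode pair counted by paired-end Illumina sequencing.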
Variant,area with substrate ENLYFQA,area with substrate ENLYFQC,area with substrate ENLYFQD,area with substrate ENLYFQE,area with substrate ENLYFQF,area with substrate ENLYFQG,area with substrate ENLYFQH,area with substrate ENLYFQI,area with substrate ENLYFQL,area with substrate ENLYFQM,area with substrate ENLYFQP,area with substrate ENLYFQR,area with substrate ENLYFQS,area with substrate ENLYFQT,area with substrate ENLYFQV,area with substrate ENLYFQW,area with substrate ENLYFQN,area with substrate ENLYFQQ,area with substrate ENLYFQK,area with substrate ENLYFQY
MGESLFKGPRDYEPISSSICHLTNESDGHTTSLYGIGFGPFIITNKHLFRRNNGTLVVQSLHGVFKVKDTTTLQQHLVDGRDMIIIRMPKDFPPFPQKLKFREPQREERICLVTTNFQTKSMSSMVSDTSCTFPSGDGIFWKHWIQTKDGQCGSPLVSTRDGFIVGIHSASNFTNTNNYFTSVPKNFMELLTNQEAQQWVSGWRLNADSVLWGGHKVFMVKPEEPFQPVKEATQL [N13E],0.0864,0.14,0.0771,0.0703,0.0698,0.0866,0.0858,0.0565,0.069,0.0807,0.0652,0.0541,0.102,0.059,0.0514,0.0563,,,,
MGESLFKGPRDYNPISSSKCHLTNESDGHTTSLYGIGFGPFIITNKHLFRRNNGTLVVQSLHGVFKVKDTTTLQQHLVDGRDMIIIRMPKDFPPFPQKLKFREPQREERICLVTTNFQTKSMSSMVSDTSCTFPSGDGIFWKHWIQTKDGQCGSPLVSTRDGFIVGIHSASNFTNTNNYFTSVPKNFMELLTNQEAQQWVSGWRLNADSVLWGGHKVFMVKPEEPFQPVKEATQL [I19K],0.0824,0.0796,,,,,,0.0608,0.0434,0.0587,0.0349,0.0681,0.0707,0.0364,0.0572,0.0479,0.0439,0.0491,,
MGESLFKGLRDYNPISSSICHLTNESDGHTTSLYGIGFGPFIITNKHLFRRNNGTLVVQSLHGVFKVKDTTTLQQHLVDGRDMIIIRMPKDFPPFPQKLKFREPQREERICLVTTNFQTKSMSSMVSDTSCTFPSGDGIFWKHWIQTKDGQCGSPLVSTRDGFIVGIHSASNFTNTNNYFTSVPKNFMELLTNQEAQQWVSGWRLNADSVLWGGHKVFMVKPEEPFQPVKEATQL [P9L],0.114,0.162,0.0751,,,0.171,0.0885,0.0521,0.0674,0.109,,0.0605,0.116,,,0.0782,0.0751,0.0762,,
MGMSLFKGPRDYNPISSSICHLTNESDGHTTSLYGIGFGPFIITNKHLFRRNNGTLVVQSLHGVFKVKDTTTLQQHLVDGRDMIIIRMPKDFPPFPQKLKFREPQREERICLVTTNFQTKSMSSMVSDTSCTFPSGDGIFWKHWIQTKDGQCGSPLVSTRDGFIVGIHSASNFTNTNNYFTSVPKNFMELLTNQEAQQWVSGWRLNADSVLWGGHKVFMVKPEEPFQPVKEATQL [E3M],0.127,0.111,,0.0798,0.082,,0.0629,0.0552,0.0819,0.112,,0.0507,0.13,,0.0469,0.0682,,,0.0809,0.0503
MGHSLFKGPRDYNPISSSICHLTNESDGHTTSLYGIGFGPFIITNKHLFRRNNGTLVVQSLHGVFKVKDTTTLQQHLVDGRDMIIIRMPKDFPPFPQKLKFREPQREERICLVTTNFQTKSMSSMVSDTSCTFPSGDGIFWKHWIQTKDGQCGSPLVSTRDGFIVGIHSASNFTNTNNYFTSVPKNFMELLTNQEAQQWVSGWRLNADSVLWGGHKVFMVKPEEPFQPVKEATQL [E3H],0.0929,0.0722,0.0848,0.0608,,0.111,,0.0634,0.0616,0.0857,,0.0647,0.11,0.0802,0.0617,0.0672,,,0.0715,0.082
MGESLFDGPRDYNPISSSICHLTNESDGHTTSLYGIGFGPFIITNKHLFRRNNGTLVVQSLHGVFKVKDTTTLQQHLVDGRDMIIIRMPKDFPPFPQKLKFREPQREERICLVTTNFQTKSMSSMVSDTSCTFPSGDGIFWKHWIQTKDGQCGSPLVSTRDGFIVGIHSASNFTNTNNYFTSVPKNFMELLTNQEAQQWVSGWRLNADSVLWGGHKVFMVKPEEPFQPVKEATQL [K7D],0.0805,0.105,0.0743,,0.0816,,0.0686,0.0512,0.0561,0.075,,0.0792,0.0863,,,,,,,0.0776
MGESLFKGPRDYNPQSSSICHLTNESDGHTTSLYGIGFGPFIITNKHLFRRNNGTLVVQSLHGVFKVKDTTTLQQHLVDGRDMIIIRMPKDFPPFPQKLKFREPQREERICLVTTNFQTKSMSSMVSDTSCTFPSGDGIFWKHWIQTKDGQCGSPLVSTRDGFIVGIHSASNFTNTNNYFTSVPKNFMELLTNQEAQQWVSGWRLNADSVLWGGHKVFMVKPEEPFQPVKEATQL [I15Q],0.0762,0.1,0.0805,,0.0532,0.0954,0.0808,0.0592,0.0607,0.084,0.0472,0.0518,0.0957,0.0495,0.0368,0.0568,0.0621,,0.056,0.096
MGESLFKGPRDYNPKSSSICHLTNESDGHTTSLYGIGFGPFIITNKHLFRRNNGTLVVQSLHGVFKVKDTTTLQQHLVDGRDMIIIRMPKDFPPFPQKLKFREPQREERICLVTTNFQTKSMSSMVSDTSCTFPSGDGIFWKHWIQTKDGQCGSPLVSTRDGFIVGIHSASNFTNTNNYFTSVPKNFMELLTNQEAQQWVSGWRLNADSVLWGGHKVFMVKPEEPFQPVKEATQL [I15K],0.0712,0.0798,0.0553,,,0.0669,0.0809,0.0676,0.0446,0.0685,,0.0566,0.0673,0.0423,,0.0433,0.0663,,0.057,0.0578
MGESLFKGPRDYNPESSSICHLTNESDGHTTSLYGIGFGPFIITNKHLFRRNNGTLVVQSLHGVFKVKDTTTLQQHLVDGRDMIIIRMPKDFPPFPQKLKFREPQREERICLVTTNFQTKSMSSMVSDTSCTFPSGDGIFWKHWIQTKDGQCGSPLVSTRDGFIVGIHSASNFTNTNNYFTSVPKNFMELLTNQEAQQWVSGWRLNADSVLWGGHKVFMVKPEEPFQPVKEATQL [I15E],0.0647,0.0843,0.0564,0.0578,0.074,0.0882,0.0711,0.0504,0.0607,0.0732,0.0501,0.053,0.0775,0.0645,,,,0.0496,0.0506,0.062

# Reference: the supplement of paper PMC12217912
